# Experimental data reported in publication PMC7819943, “Rice protein-binding microarrays: a tool to detect cis-acting elements near promoter regions in rice”.
# The list shows a part of the results.
# Biological target: T1, OsWOX13 (Oryza sativa, UniProt Q5QMM3 1-267)
# T1 sequence: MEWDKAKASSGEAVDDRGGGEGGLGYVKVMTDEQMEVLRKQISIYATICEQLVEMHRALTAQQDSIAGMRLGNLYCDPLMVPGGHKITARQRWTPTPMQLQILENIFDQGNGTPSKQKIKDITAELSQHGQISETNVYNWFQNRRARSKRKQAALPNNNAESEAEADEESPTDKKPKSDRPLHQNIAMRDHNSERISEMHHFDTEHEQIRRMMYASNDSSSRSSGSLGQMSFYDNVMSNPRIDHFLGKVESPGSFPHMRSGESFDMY
# Assay: protein-binding microarray (RPBM); PBS, 2% BSA, 51.3 ng/ul salmon testes DNA, 50 uM zinc acetate, 200 nM TF, 25 C, 1 h; high values mean tight binding
# Settings: protein: recombinant; tags: N-terminal polyhistidine and DsRed monomer fusion (pET32a); label: CyDye5-dUTP incorporated in the synthesized complementary strand; 3' TTTTT single-stranded linker to array surface; dsDNA, one strand shown
# Outline: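 Transcription factors, each fused N-terminally to a polyhistidine tag and DsRed, were expressed in E. coli BL21-CodonPlus and purified on Ni–NTA. A custom Agilent array was made double-stranded by primer extension with Cy5-dUTP and blocked with 2% BSA. It was incubated with 200 nM protein in PBS, 2% BSA, salmon testes DNA and 50 µM zinc acetate at 25 °C for 1 h, then washed. The binding signal is per-feature fluorescence intensity (arbitrary units) read on an Axon 4000B scanner.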
row,Sequence,binding signal
1,TATTAATTAATGGGATGTATTCTCCCCTTCTCTCATCATACGGAGTCACCTAGTGCAG,36500 fluorescence intensity (a.u.)
2,ATATTCAGCTGATTGGGGCATTGGGTATTTGCAGTGAGCACGGAGTCACCTAGTGCAG,18500 fluorescence intensity (a.u.)
3,CACTGATTTTGCTATGTTTACTTTATGTATAGGTGTTTCTCGGAGTCACCTAGTGCAG,5500 fluorescence intensity (a.u.)
4,ATTCCATTTCCATTCCCGCTTGATTTTCCCTCCCATTCTTCGGAGTCACCTAGTGCAG,5400 fluorescence intensity (a.u.)
5,GAAACATGTTGAGATTGATTTACATTTTGTGCGCGAGAAGCGGAGTCACCTAGTGCAG,18000 fluorescence intensity (a.u.)
6,AATTTGATAATAACTTAGAGTGATTAACTTGCTGTATGATCGGAGTCACCTAGTGCAG,10700 fluorescence intensity (a.u.)
7,ATGATTTCGTTAATATCAAGATATATCAGTCGAGTCTTCTCGGAGTCACCTAGTGCAG,5410 fluorescence intensity (a.u.)
8,CGTGATTATATTCCGATGAAACTATAACAAATATTTCAGGCGGAGTCACCTAGTGCAG,40500 fluorescence intensity (a.u.)
9,TGATAATGTCTAAATTTGTATACAAAAGTTGATTTATTTTCGGAGTCACCTAGTGCAG,3860 fluorescence intensity (a.u.)
10,AGAGGGTGGGGACATGGGGATTGATTTCACCTGTAGGATTCGGAGTCACCTAGTGCAG,3430 fluorescence intensity (a.u.)
11,TGATTTAATTTAATGCATCTGGATCTTCAATCGGATGGTTCGGAGTCACCTAGTGCAG,24200 fluorescence intensity (a.u.)
12,TTCTCTAATTTATTAGAACGCCACATGACGGCTTGAGAGTCGGAGTCACCTAGTGCAG,7680 fluorescence intensity (a.u.)
13,ACAACTTGATTTCATTGAATTTATTGTGGCGCATTTACAGCGGAGTCACCTAGTGCAG,11900 fluorescence intensity (a.u.)
14,CCAAATACACAGCCCATTAACACAAGATTAATGACCCACACGGAGTCACCTAGTGCAG,4780 fluorescence intensity (a.u.)
15,ATAATTTATTAGTACTAGTATATTGCATCTATCCTATATACGGAGTCACCTAGTGCAG,5090 fluorescence intensity (a.u.)
16,GTTGCAGGGTGGGGATTGTTAAATTTATTGTTTGGCTGGACGGAGTCACCTAGTGCAG,8170 fluorescence intensity (a.u.)
17,AAACGTCAATTAACATGGAACCGGAGGGAGTAGTTCCATACGGAGTCACCTAGTGCAG,14800 fluorescence intensity (a.u.)
18,GAGTATTAATTACATAAATTTTAAAACAAATTTATTCAATCGGAGTCACCTAGTGCAG,12900 fluorescence intensity (a.u.)
19,AGTATCTCGAGTTTATACACTAATTAGTACTCCAGCAGCTCGGAGTCACCTAGTGCAG,5670 fluorescence intensity (a.u.)
20,CCGCCCGCATCCATCACCTAAATTTACTGGTAATCGAGAGCGGAGTCACCTAGTGCAG,5080 fluorescence intensity (a.u.)
21,ATTTGATTTGAGTTTTAAGACAGGAAGCTTTTGGAATTACCGGAGTCACCTAGTGCAG,24700 fluorescence intensity (a.u.)
22,AAGATGTGACAATTAAGAATTTATCACTCATAGTCTATGACGGAGTCACCTAGTGCAG,5730 fluorescence intensity (a.u.)
23,AAAGGTGATGTGATAAATTGACTCATTCCATGATCGACTCCGGAGTCACCTAGTGCAG,18600 fluorescence intensity (a.u.)
24,GCGTATTGACTGTTGAGCCCGGCCCGTATGAATCCCTTGTCGGAGTCACCTAGTGCAG,6710 fluorescence intensity (a.u.)
25,ATAGATGACAAATTGGGCAGCGGGAGGGACAGAAACTGGACGGAGTCACCTAGTGCAG,6800 fluorescence intensity (a.u.)
26,CATCAATCACAAAACTGGCTATAACGCCTCTTCCATATTCCGGAGTCACCTAGTGCAG,19800 fluorescence intensity (a.u.)
27,ATCATTAATTAACAAAACAGACTTAATGGTTCTTGATCTTCGGAGTCACCTAGTGCAG,36000 fluorescence intensity (a.u.)

row,Sequence,binding signal
1,CACTTGATTAATTTATCCTCTCCTCGCGTCGCTGTCGCGTCGGAGTCACCTAGTGCAG,52700 fluorescence intensity (a.u.)
2,AAACCTACCAATTGATTAATTAATGTCAAAAGATTTTGCACGGAGTCACCTAGTGCAG,30700 fluorescence intensity (a.u.)
3,TACTAGTAATTACCGCTAGTAATCACGATAATAGTATGGCCGGAGTCACCTAGTGCAG,17000 fluorescence intensity (a.u.)
4,AGGCTTAATTACGTGTACATAACTAGTATATAATAATATACGGAGTCACCTAGTGCAG,11600 fluorescence intensity (a.u.)
5,AATAATTTTATACTCCACCATTTTCAAATAATTGACACGGCGGAGTCACCTAGTGCAG,25000 fluorescence intensity (a.u.)
6,AATAACTAACTTTTGAGATTGAACGGAGGTAGTAGCCATCCGGAGTCACCTAGTGCAG,20300 fluorescence intensity (a.u.)
7,TGGTTGATGAGAAGATAGGTGAACTGGATGATGCCTCTCCCGGAGTCACCTAGTGCAG,4570 fluorescence intensity (a.u.)
8,ATCAAATCAATAATTGAATATATTTTCATAATAAATTTGTCGGAGTCACCTAGTGCAG,29400 fluorescence intensity (a.u.)
9,AATAGCGTCTTCAATCAATAGCGTCGTACAACCATTCAACCGGAGTCACCTAGTGCAG,5950 fluorescence intensity (a.u.)
10,TGATTGATTAGTCACCACACCACAGTGCCACACACGTAGTCGGAGTCACCTAGTGCAG,46600 fluorescence intensity (a.u.)
11,TCAATTTGATTTGCTTTTGCATCTTAGTACAACTTTATTCCGGAGTCACCTAGTGCAG,11900 fluorescence intensity (a.u.)
12,ATAATTGATGGAATTACTGAAGCAGTTGAGCACAATGCGTCGGAGTCACCTAGTGCAG,41900 fluorescence intensity (a.u.)
13,TCTAATGATGCGTTAATGCTAGTGCACATCTGTAATGTCACGGAGTCACCTAGTGCAG,3840 fluorescence intensity (a.u.)
14,TTGTCATAATTTGAAATTCAAATTCAAAACTGTTCAAACACGGAGTCACCTAGTGCAG,8110 fluorescence intensity (a.u.)
15,TTAGTCACCAATCAACTATTGTACCAACAATAGTGGGTCCCGGAGTCACCTAGTGCAG,10500 fluorescence intensity (a.u.)
16,CCTGATTAACTGACAGCTCCACCCCGTTTTGCTATTCCAGCGGAGTCACCTAGTGCAG,46200 fluorescence intensity (a.u.)
17,ACTCGTTAATCATATACTTAATCACTTTGTCTCGTAGGTTCGGAGTCACCTAGTGCAG,11800 fluorescence intensity (a.u.)
18,TTAATTAACTCAGCTTCTAGTTCATATGACTCTTGCTAATCGGAGTCACCTAGTGCAG,8400 fluorescence intensity (a.u.)
19,CTTTAACTATAGTAAACAGTAATTTTATGGAATTCACTCACGGAGTCACCTAGTGCAG,4610 fluorescence intensity (a.u.)
20,TATTGAGCCTAATTAATCTATGATTAGGCTATGTGATGCTCGGAGTCACCTAGTGCAG,12900 fluorescence intensity (a.u.)
21,TAAAATTTTCTCTTAGATTACTCATCGAATTTACGATCCGCGGAGTCACCTAGTGCAG,9970 fluorescence intensity (a.u.)
22,CGTGAGACGACGAGATTGACGTCTTCTTCCAAGAGCCCTTCGGAGTCACCTAGTGCAG,11300 fluorescence intensity (a.u.)
23,CTTCTGTTGATCGGCTCAATCAACGAAATCCCCGAAAACGCGGAGTCACCTAGTGCAG,13700 fluorescence intensity (a.u.)
24,AGTGTGATTGATGCACAAACAAACAGCTCAAGTTGAGGCCCGGAGTCACCTAGTGCAG,55400 fluorescence intensity (a.u.)
25,AAAATCTGACATCTGACATGTTAATTAAGCTTGTGTTAGTCGGAGTCACCTAGTGCAG,4890 fluorescence intensity (a.u.)
26,GCTGTGATGGACTGGGTAATCAGAAGGGAGACATGCGAGGCGGAGTCACCTAGTGCAG,23600 fluorescence intensity (a.u.)
27,AGTCTCTCCAATCTAATCTCATTTCATCTTCATCATCTCCCGGAGTCACCTAGTGCAG,5590 fluorescence intensity (a.u.)
